Where “and” joins values, the source holds several entries; their conditions need not be identical. Identical values can stand only once.
Biological target: full-length human Notch3 expressed on the cell surface (human) (UniProt Q9UM47)
Assay: cell-based or functional assay

UniProt Q9UM47, sequence (Q9UM47 40-2321): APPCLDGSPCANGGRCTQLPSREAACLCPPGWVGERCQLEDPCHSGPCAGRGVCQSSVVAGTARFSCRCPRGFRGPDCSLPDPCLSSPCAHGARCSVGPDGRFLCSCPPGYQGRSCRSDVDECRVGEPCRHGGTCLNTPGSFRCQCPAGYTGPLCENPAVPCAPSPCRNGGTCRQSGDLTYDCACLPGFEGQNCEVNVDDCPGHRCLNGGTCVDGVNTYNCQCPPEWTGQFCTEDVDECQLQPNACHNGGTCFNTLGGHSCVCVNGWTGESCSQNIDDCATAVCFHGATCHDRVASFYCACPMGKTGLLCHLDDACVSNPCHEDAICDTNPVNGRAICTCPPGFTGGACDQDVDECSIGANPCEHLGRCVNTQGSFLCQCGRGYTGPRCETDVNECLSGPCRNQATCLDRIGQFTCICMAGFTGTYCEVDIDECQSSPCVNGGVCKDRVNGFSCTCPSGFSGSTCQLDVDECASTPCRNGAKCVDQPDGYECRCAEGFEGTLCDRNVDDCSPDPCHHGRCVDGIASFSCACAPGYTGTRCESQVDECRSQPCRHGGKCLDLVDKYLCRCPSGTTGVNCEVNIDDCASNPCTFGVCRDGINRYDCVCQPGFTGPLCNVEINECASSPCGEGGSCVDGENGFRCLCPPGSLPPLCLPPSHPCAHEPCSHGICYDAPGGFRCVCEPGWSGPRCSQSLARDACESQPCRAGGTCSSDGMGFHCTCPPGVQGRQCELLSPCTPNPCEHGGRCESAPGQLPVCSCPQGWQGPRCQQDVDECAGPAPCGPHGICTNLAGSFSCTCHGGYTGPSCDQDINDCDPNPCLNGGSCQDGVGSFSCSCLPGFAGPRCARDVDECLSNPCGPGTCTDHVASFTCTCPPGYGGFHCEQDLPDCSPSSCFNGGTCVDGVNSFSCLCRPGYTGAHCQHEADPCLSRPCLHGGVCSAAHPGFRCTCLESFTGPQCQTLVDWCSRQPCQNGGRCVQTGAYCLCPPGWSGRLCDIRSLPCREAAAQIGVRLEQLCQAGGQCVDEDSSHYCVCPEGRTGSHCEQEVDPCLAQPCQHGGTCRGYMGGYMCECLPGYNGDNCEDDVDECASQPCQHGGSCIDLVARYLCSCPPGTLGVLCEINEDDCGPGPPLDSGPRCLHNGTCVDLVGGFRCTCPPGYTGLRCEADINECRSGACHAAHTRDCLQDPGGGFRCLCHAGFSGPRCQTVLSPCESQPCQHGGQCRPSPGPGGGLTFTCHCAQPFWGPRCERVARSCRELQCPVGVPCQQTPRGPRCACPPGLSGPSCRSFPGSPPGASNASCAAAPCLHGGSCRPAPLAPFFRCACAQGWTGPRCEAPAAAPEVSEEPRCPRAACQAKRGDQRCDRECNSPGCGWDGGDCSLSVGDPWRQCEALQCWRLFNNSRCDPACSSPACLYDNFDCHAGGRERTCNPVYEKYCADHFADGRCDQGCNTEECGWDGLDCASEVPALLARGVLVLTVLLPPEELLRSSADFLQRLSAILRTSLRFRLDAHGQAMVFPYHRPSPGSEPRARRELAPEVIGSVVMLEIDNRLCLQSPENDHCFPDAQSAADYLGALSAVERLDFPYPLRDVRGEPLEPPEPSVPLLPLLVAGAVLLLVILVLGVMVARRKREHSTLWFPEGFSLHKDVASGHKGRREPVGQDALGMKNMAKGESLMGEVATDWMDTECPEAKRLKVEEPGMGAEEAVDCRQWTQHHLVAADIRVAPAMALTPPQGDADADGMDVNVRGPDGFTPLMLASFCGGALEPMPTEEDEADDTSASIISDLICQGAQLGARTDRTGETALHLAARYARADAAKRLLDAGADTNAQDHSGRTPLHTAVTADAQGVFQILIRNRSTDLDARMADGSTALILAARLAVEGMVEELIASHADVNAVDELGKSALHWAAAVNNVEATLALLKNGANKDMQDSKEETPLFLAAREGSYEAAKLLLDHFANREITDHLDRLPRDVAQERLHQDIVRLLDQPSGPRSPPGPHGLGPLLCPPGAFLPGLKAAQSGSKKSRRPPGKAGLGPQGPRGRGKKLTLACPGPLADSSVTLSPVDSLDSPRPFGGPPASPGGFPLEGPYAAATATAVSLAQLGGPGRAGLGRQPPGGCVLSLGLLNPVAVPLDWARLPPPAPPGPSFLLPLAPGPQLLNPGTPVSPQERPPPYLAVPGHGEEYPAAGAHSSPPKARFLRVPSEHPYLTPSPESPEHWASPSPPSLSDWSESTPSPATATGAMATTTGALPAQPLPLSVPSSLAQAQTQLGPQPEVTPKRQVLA

B1: hu28-(L443C)-vc0101 (antibody, name in EU numbering)
heavy: EVQLVESGGGLVQPGGSLRLSCAASGFTFRDYGMTWVRQAPGKGLEWVAYISSGSNYIYYAEAVKGRFTISRDNAKNSLYLQMNSLRAEDTAVYYCARRGPFVLDAWGQGTLVTVSSASTKGPSVFPLAPSSKSTSGGTAALGCLVKDYFPEPVTVSWNSGALTSGVHTFPAVLQSSGLYSLSSVVTVPSSSLGTQTYICNVNHKPSNTKVDKKV[letters of human IgG1 Fc with L443C (EU numbers) omitted]
light: DIQMTQSPSSLSASVGDRVTITCKASQSINRYLHWYQQKPGKAPKLLIYNANGLQTGVPSRFSGSGSGTDFTLTISSLQPEDFATYYCLQHNTWPDTFGGGTKVEIKRTVAAPSVFIFPPSDEQLKSGTASVVCLLNNFYPREAKVQWKVDNALQSGNSQESVTEQDSKDSTYSLSSTLTLSKADYEKHKVYACEVTHQGLSSPVTKSFNRGEC
modifications: vc0101 linker-payload on the engineered cysteine (site-specific conjugation)
How did the IC50 of cytotoxicity (MTS viability), HCC2429 cells (column read by position) turn out when B1 was run?
The IC50 of cytotoxicity (MTS viability), HCC2429 cells (column read by position) was 20300 ng Ab/ml and 16900 ng Ab/ml and 14300 ng Ab/ml.

And the IC50 of cytotoxicity (MTS viability), OVCAR3 cells (column read by position)?
The IC50 of cytotoxicity (MTS viability), OVCAR3 cells (column read by position) was 13100 ng Ab/ml and 15800 ng Ab/ml and 12200 ng Ab/ml.

From US20140127211A1
